In all, about 150,000 compounds went through this assay and about 540 (0.36%) showed an effect of 50% or more. This is one part of the list.
Each compound was assayed on Plasmodium falciparum (assay: Primary screen in NF54 nanoGlo assay, in single point, at 2uM, 72h; a lower Z score goes with more inhibition). Conditions: timepoint 72 hour.
Type: functional, Erythrocyte

| SMILES | % Inhibition | Z score |
| --- | --- | --- |
| CC(C)Cc1cc(C(=O)N(Cc2ccsc2)C2CCCC2)on1 | -7% | 1.06 |
| COCCN1CC2(CCC1=O)CCN(C(=O)Cc1ccc(F)cc1)CC2 | 10% | -1.55 |
| CS(=O)(=O)n1cnc2cc(F)c(F)cc21 | 38% | -4.91 |
| CCCCCNC(=O)Nc1cc(S(C)(=O)=O)ccc1Cl | -3% | 0.43 |
| CC1(C)C[C@@H]1NC(=O)NCc1cnc(C2CC2)o1 | 15% | -1.69 |
| Cc1ncccc1OCCOC(C)(C)C | -11% | 1.75 |
| O=S(=O)(CCC(F)(F)F)N1CCn2nc3c(c2C1)CCC3 | 16% | -1.97 |
| COc1cccc(CNC(=O)NC[C@H](c2ccc(F)cc2)c2c[nH]c3ccccc23)c1 | -7% | 1.28 |
| Cn1c(-c2cccc(C(=O)Nc3ccc(N4CCOCC4)cc3)c2)nc2cccnc21 | -5% | 0.63 |
| NC(=O)c1ccc(CN2CCC3CCCCC3C2)cc1 (stereo not drawn) | -8% | 1.38 |
| N#Cc1c(N)c(C#N)c(-c2ccc3c(c2)OCO3)c2c1CCCC2 | 0% | 0.02 |
| COc1ccc(CCNc2ccc(NC(=O)CCCNC(=O)OC(C)(C)C)cn2)cc1 | -2% | 0.31 |
| COc1cc2c(cc1CN1C[C@H](O)[C@@H](F)C1)OCO2 | -10% | 1.29 |
| Cc1ccc(S(=O)(=O)NC(=O)C2CCC3CC3C2)s1 (stereo not drawn) | 1% | -0.06 |
| CCN(CC)CCOc1cc(C)cc(C)c1 | -4% | 0.67 |
| CCOc1cc(C(=O)N[C@H]2CCc3c(nc(C)n3CCO)C2)n[nH]1 | -6% | 1.17 |
| c1ccc2c(Oc3ccc(CN4CCOCC4)c4cccnc34)nccc2c1 | -9% | 1.73 |
| CCn1cc(S(=O)(=O)N2CCC[C@H]2c2nncn2Cc2ccncc2)cn1 | 0% | -0.02 |
| CC(=O)N1CCc2cc(S(=O)(=O)N3CCC(CC(=O)NC4CCCCC4)CC3)ccc21 | -10% | 0.95 |
| CN(C)Cc1ccnc(NC(=O)N2C[C@@H]3CCC[C@]3(C(N)=O)C2)c1 | -6% | 0.92 |
| Cc1cc(S(=O)(=O)NC[C@H]2CCCO2)ccc1N1CCCC1=O | -25% | 2.32 |

| SMILES | % Inhibition | Z score |
| --- | --- | --- |
| CN(CCc1nccc(O)n1)S(=O)(=O)Cc1ccccc1 | -7% | 0.9 |
| Cn1nccc1C1(O)CN(S(=O)(=O)C2Cc3ccccc3C2)C1 | -11% | 1.76 |
| Cc1cc(CN(C)C(=O)c2ccc(NC(=O)c3ccoc3C)cc2)n[nH]1 | -2% | 0.38 |
| COc1c(Br)cc(Br)cc1CNCCNC(=O)C(C)C | 0% | -0.04 |
| CN1Cc2ccc(CN(C)C(=O)CCc3c[nH]c4ccccc34)cc2C1 | -10% | 0.87 |
| O=C(O)c1ccc2nc(-c3cccn3-c3ncccn3)[nH]c2c1 | -16% | 2.33 |
| Clc1ccc(C[n+]2ccc(-c3nc4ccccc4o3)cc2)c(Cl)c1 | 79% | -11.4 |
| CN(C)CCn1ccc(NC(=O)N2CCC[C@H](c3ccn(C)n3)C2)n1 | 11% | -1.25 |
| O=C(c1ccc(F)c(F)c1F)N1CCC(n2ccnn2)CC1 | 34% | -3.84 |
| Cn1cc(NC(=O)C2(O)CCCC2)nn1 | -2% | 0.35 |
| CCCCCS(=O)(=O)N(C)C1CCC1 | 13% | -1.45 |
| CC(C)Cn1cccc(C(=O)Nc2cn(C)nc2-c2ccco2)c1=O | -9% | 1.12 |
| O=C(c1ccc(F)cc1)N1CCC2(CC1)C[C@@H](N1CCOCC1)CCO2 | -3% | 0.57 |
| O=C(O)[C@@]12CN(Cc3cccc(F)c3)C[C@@H]1CN(Cc1cccs1)C2 | -17% | 2.25 |
| COCc1ccc(NC(=O)N2Cc3cccc(OC)c3C2)cc1C(F)(F)F | -8% | 0.83 |
| COCCn1cncc1CNC(=O)N(C)[C@@H](C)c1nc(C)sc1C | -1% | 0.18 |
| Cc1cc(C)cc(N(Cc2cc(C)no2)Cc2cc(C)no2)c1 | -11% | 1.49 |
| NCc1ccc(C(=O)N(Cc2ccccc2)C2CCCCC2)o1 | -13% | 1.69 |
| CN(CC(O)c1cccnc1)C(=O)[C@@H]1C[C@]1(C)c1ccccc1 (stereo partly drawn) | -6% | 1.21 |
| CC1(O)CC(C(=O)NCC[C@H]2CCCCO2)C1 (stereo partly drawn) | -2% | 0.29 |
| CCc1ccc(-c2cc3n(n2)C[C@@](C)(C(=O)NC2CCCCCC2)N(c2ccc(F)cc2)C3=O)cc1 | 0% | 0.02 |

| SMILES | % Inhibition | Z score |
| --- | --- | --- |
| N#Cc1nc(C2CC2)oc1N1CCN(C(=O)c2ccc(O)nc2)CC1 | -2% | 0.35 |
| CNC(=O)c1cc(N2CCN(c3ncc(C(F)(F)F)cc3Cl)CC2)ccc1NC(=O)c1ccccc1Cl | 35% | -1.22 |
| Cc1ccc(C(=O)N/C(=N/c2ccc3c(c2)OCCO3)NCc2c(C)nn(C)c2C)cc1C | -4% | 0.72 |
| O=C1NCCC[C@@H]1NC(=O)[C@H]1CN(C(=O)c2cncnc2)CCN1C(=O)C1CCCCC1 | -1% | 0.08 |
| CCCNC(=O)N(Cc1cc(-c2ccccc2OC)on1)C(C)C | -4% | 0.74 |
| CC(C)c1csc(CNC(=O)c2cnc3cn[nH]c3c2)n1 | -16% | 2.59 |
| CCS(=O)(=O)N1CCC(c2cc(-c3ccc(F)cc3)n[nH]2)CC1 | -10% | 1.23 |
| O=C(Cn1cc2c(n1)CCOC2)NCc1ccccc1F | -5% | 0.67 |
| Cc1cc2c(N[C@H]3C[C@@](C)(O)C3)nccn2n1 | -3% | 0.54 |
| CN(C)CCCC(C)(C)NC(=O)CC=CCc1ccccc1 | -17% | 1.97 |
| COCC(=O)N(CC(=O)N(Cc1ccccc1)Cc1ccc(C)o1)C(C)C | -14% | 1.57 |
| CNC(=O)c1cc(O[C@H]2CCCN(C(=O)C3CC(=O)C3)C2)ccn1 | -1% | 0.16 |
| CC(NC(=O)C1(O)CCCC1)C1CCN(Cc2ccccc2)C1 (stereo not drawn) | -10% | 2 |
| Cn1nccc1C[C@@H]1CCCN1C(=O)NCC(C)(C)c1cccnc1 | 0% | 0.04 |
| Nc1cncc(-c2ccc(F)c3cccnc23)c1 | 9% | -1.61 |
| CC[C@@](NC(=O)c1cscc1C)(C(N)=O)C(C)C | -1% | 0.17 |
| Cn1cc(S(=O)(=O)N2CCCCCC2)cc1C(=O)NC1CCCCC1 | 4% | -0.59 |
| CN1CCN(CC[C@H]2CCCCN2C(=O)Nc2ccc3[nH]ccc3c2)CC1 | -5% | 0.7 |
| CC(C)[C@H]1C(=O)NCCN1c1ncc(Br)cn1 | -7% | 0.77 |
| O=C1NC[C@H]2O[C@H](CCOc3cc(-c4ccccc4)ccc3C(=O)N3CCN(C4CCCCC4)C[C@@H]13)CC[C@@H]2O | 3% | -0.37 |
| CCC(OC1CCCC(C)C1)C(=O)N(C)Cc1cnccn1 (stereo not drawn) | -6% | 0.79 |

| SMILES | % Inhibition | Z score |
| --- | --- | --- |
| Cc1cc(N[C@H](c2nc(-c3nnc[nH]3)no2)C(C)(C)C)n2nc(C(F)(F)F)nc2n1 | -7% | 0.71 |
| Cn1ccnc1COC(=O)c1cscn1 | -1% | 0.12 |
| COc1ccc(-c2nc(C(=O)N3c4ccccc4C[C@H]3C(N)=O)cs2)cc1 | -4% | 0.47 |
| Cc1cnccc1CCNCc1ccccc1OCCCCO | -1% | 0.11 |
| CCC(C)NS(=O)(=O)c1cccc(N2C(=O)NC3(CCOC3)C2=O)c1 (stereo not drawn) | -3% | 0.34 |
| COCCCCn1ccnc1-c1ccncc1 | -3% | 0.49 |
| CCn1c(=O)c(CCC(=O)NCCN2CCCCC2)nc2c(C)nn(-c3ccccc3)c21 | -14% | 2.1 |
| CN1CCC2(CC1)CN(C(=O)c1cc(-c3ccccc3)on1)CCCN2C | -1% | 0.16 |
| O=S1(=O)[C@H](c2ccccc2)CCN1Cc1cc(F)ccc1OC(F)F | -13% | 1.5 |
| CCNc1ccc(Cl)cc1C(=O)Oc1ccc(NS(C)(=O)=O)cc1 | -9% | 1.22 |
| COc1ccc(-c2ccc(=O)n(CCNS(=O)(=O)c3ccc(Oc4ccccc4)cc3)n2)cc1 | -5% | 0.94 |
| COc1cc(C(=O)O)cc(OC)c1-c1ccc([C@H](C)N2CCCC2)cc1 | -8% | 1.56 |
| COC[C@@H]1CN(c2ncccn2)C[C@H]1C(=O)Nc1ccc(OC)nc1 | -11% | 1.62 |
| CC(C)N(c1snnc1N)C(C)C | -41% | 4.86 |
| O=C(c1cnn(C2CC2)c1)N1CC[C@H](c2cccnc2)C1 | -3% | 0.59 |
| CC(C)c1nc(C2CCN(C(=O)c3nc4n(n3)CCCN4)CC2)no1 | -9% | 1.29 |
| Nc1nnc(-c2cc(-c3ccc4c(c3)OCO4)on2)o1 | -10% | 1.43 |
| CC(C)N(C)C(=O)[C@H](C)Nc1cnn(CC(F)F)c1 | -5% | 0.57 |
| CCc1cccc2c(CCNC(=O)CCNC(=O)C3CCC3)c[nH]c12 | -5% | 0.71 |
| COc1ccc(N2CCN(C(=O)CC[C@@H](C)[C@H]3CC[C@H]4[C@@H]5[C@H](O)C[C@@H]6C[C@H](O)CC[C@]6(C)[C@H]5C[C@H](O)[C@]34C)CC2)cc1 | -12% | 1.52 |
| O=C(Nc1cccc(-c2csc(Nc3ccccc3Cl)n2)c1)C1CCOCC1 | -1% | 0.18 |
